Data on 27 variants can be found in the RNAGym collection of RNA variant scans (doi:10.1101/gad.245936.114).

Sequences and labels used below:
B1: tRNA (parent)
chain: CUCUCGGUAGCCAAGUUGGUUUAAGGCGCAAGACUUUAAUUUAUCACUACGAAAUCUUGAGAUCGGGCGUUCGACUCGCCCCCGGGAGAUUUUUUCCUCGAGCAA

Variants at the floor of the assay are shown more often than the library holds them.

In the data set the parent is B1. The data set is described as follows: nonsense suppression (GFP-seq) (ratio to wild type); higher = more function; SUP4oc tRNA, yeast GFP reporter sort-seq. Summed up: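 Yeast carrying genome-integrated SUP4oc tRNA variants from a library with ~3% random mutations were grown in raffinose/galactose medium with 80 mg/L adenine. Each strain also carried a galactose-driven GFP ochre reporter and RFP. Cells were sorted into GFP/RFP bins, and each bin was Illumina-sequenced (phred ≥30). Nonsense suppression (GFPSEQ) is the bin median GFP/RFP, weighted by each variant's estimated cell share per bin, relative to wild-type SUP4oc; variants needed ≥100 reads and ≥30 cells.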
With CUCUCGGUAGCCGAGUUGGUUUAAGGCACAAGCCUUUAAUUUAUCACUACGAAAUCUUGAGAUCGGGCGUUCGACUAGCCCCCGGGAGAUUUUUUCCUCGAGCAA [A13G G28A A33C C77A], the nonsense suppression is at most 0.026.

Turning to CUGUCGGUAGCCAAGUUGGUUUAUGGCGCAAGACAUUAAUUUAUCACUACGAAAUCUUGAGAUCCGGCGUUCGACUGGCCCCCGGGAGAUUUUUUCCUCGAGCAA [C3G A24U U35A G65C C77G], the nonsense suppression is at most 0.026. With CUCUCGGUCGCCAAGUUGGUUUAAGGCGCAAGACUUUAAUUUAUCACUACGAAAUCUUGAGAUCGGGCGUUCGACUCGCCCCCGGAAGCUUUUUUCCUCGAGCAA [A9C G86A A89C] the figure was at most 0.026; with AUCUCGGCAGCCAAGUUGGUUUAAGGCGCAAGACUUUAAUUUAUCACUACGAAAUCUUGAGAUUGGGCGUUCGACUCGCCCCCGGGCGAUUUUUUCCUCGAGCAA [C1A U8C C64U A87C], at most 0.026. Consider CUCUCGGUACCCAAGGUGGUUUAAGGCGCAAGACUUUAAUUUAUCACUACGAAAUCUUGCGAUCGGGCGUUCGACUCGCCCCCGGGAGAUUUUUUCCUCGAGCAA [G10C U16G A60C], for which the nonsense suppression was at most 0.026. In the case of CUCUCGGUAGCCAAGUUGGUUUAAGGCGCAAGACUUUAAUUUAUCACUACGAAAUUUUGACAUCGGGCGUUCGACUCGCACCCGGGAGAUUUUUUCCUCGAGCAA [C56U G61C C80A], the nonsense suppression is at most 0.026. With CUCUCGUUAGCCAAUUUGGUUUAAGGCGCAAGACUUUAAUUUAUCACUACGAAAUCUUGAGAUCGGGCGUUCGACUCGCCCCCGGGAGAUUUUUUCCUCGAGCAA [G7U G15U] the figure was at most 0.026; with CUCUCGGUAGCCAAGUUGGUAGAAGGCGCAAGACUUUAAUUUAUCACUACGAAAUCUUGAGAUCGGGCGUUCGACAAGCCCCCGGGAAAUUUUUUCCUCGAGCAA [U21A U22G U76A C77A G88A], at most 0.026; with CUCUCCGUAGCCAACUUGGUUUAAGGCGCAAGGCUUUAAUUUAUCACUACGAAAUCUUGAGAUCGGGCGUUCGACUCGCCCCCGGGAGAUUUUUUCCUCGAGCAA [G6C G15C A33G], at most 0.026. With CUCUCGGUAGCCAAGUGGGUUUAAGGUGCAAGAUUUUAAUUUAUCACUACGAAAUCUUGAGAUCGGGCGUUCGACUCGCCCUCGGGAGAUUUUUUCCUCGAGCAA [U17G C27U C34U C82U] the figure was at most 0.026; with CACUCGGUAGCCAAGUUCGUUUAAGGCGCAAGACUUUAAUUUAUCACUACGAACUCUUGAGAUCGGGAGUUCGACUCGCCCCCGGGAGAUUUUUUCCUCGAGCAA [U2A G18C A54C C68A], at most 0.026; with CUCUCGGUAGCCAAGUUGGUUUAAGGCGCAAGACUUUAAUUUAUCACUACGAAAUCUUGAGAUCGGGCCUUCGUCUCGCCCCCGGGUGAUUUUUUCCUCGAGCAA [G69C A74U A87U], at most 0.026.

Turning to CUCUCGGUAGCCAAGUUGGUAUAAGGCGCAAGACUUUAAUUUAUCACUACGAAAUCUUGAGAUCGGGCGUUCGACUCGCCCCCGAGAGAUUUUUUCCUCGAGCAA [U21A G85A], the nonsense suppression stood at 1.06.

As for CUCGCGGUAGCUAAGUUGGUUUAAGGCGCAAGACUUUAAUUUAUCACUACGAAAUCUUGAGAUCGCGCGUUCGACUCGCCCCCGGGAGAUUUUUUCCUCGAGCAA [U4G C12U G66C], the nonsense suppression is at most 0.026. In the case of CUCUCGGUAGCCAAGUUGGUUUAAGGCGCAAGACUUUAAUUUAUCACUACGAAAUCUUGAGGUCGGGCGUUCUACUCGCCCCCGGGAGAUUUUUUCCUCGAGCAA [A62G G73U], the nonsense suppression is at most 0.026. Regarding CUCUCGGUAGCCAAGUUGGUUUAAGGCGCAAGACUUUAAUUUAUCACUACGAAAUCUAGAGAUCGGGCGUUCGACUCGCCCUCGGGAGAUUUUUUCCUCGAGCAA [U58A C82U], the nonsense suppression is at most 0.026. Regarding CUCUCGGUAGCCAAGUCGGUGUAAGGCGCAAGACUUUAAUUUAUCACUACGAAAUCUUGAGAUCGGGCGUUCCACUCACCCCCGGGAGAUUUUUUCCUCGAGCAA [U17C U21G G73C G78A], the nonsense suppression is at most 0.026. Regarding CUCGCGGUAGCCAUGUUGGUUUAAUGCGCAAGUCUUUAAUUUAUCACUACGAAAUCUUGAGAUCGGGCGUUCGACUCGCCCCCGGGAGCUUUUUUCCUCGAGCAA [U4G A14U G25U A33U A89C], the nonsense suppression was at most 0.026. The value for CUCUCGGUAGCCAAGUUGGUUUAAGGCACAAGACUUUAAUUUAUCACUACGAAAUCUUGAAAUCGGGCGUUCGACUCGCCCCCGGGAGAUUUUUUCCUCGAGCAA [G28A G61A] was 0.8; that for CUCUCGGUAGCCAAGGUGGUUUAAGGCGCAAGAUUUUAAUUUAUCACUACGAAAUCUUGAGAUCGGGCGUUCGACUCGCCCCCGGGAGAUUUUUUCCUCGAGCAA [U16G C34U] was at most 0.026; that for CUCUCGGUAGCCAUGUUGGUUUAAGGCGCAAGACUUUAAUUUAUCACUACGAAAUCUUGAGAUCGGGCGUUCAACUCGCCCCCGGGAGAUUUUUUCCUCGAGCAA [A14U G73A] was at most 0.026. CUCUCGGUAGCCAAGUUAGUUUAAGGCGCAAGACUUUAAUUUAUCACUACGAAAUCUUGAGAUCGGGCGUUCGACUCGUCCCCGGGAGAUUUUUUCCUCGAGCAA [G18A C79U]: the nonsense suppression was at most 0.026.

For CUCUCGGUAGCCAAGUUGUCUUAAGGCGCAAGACUUUAAUUUAUCACUACGAAAUCUUAAGAUCGGGCGUUCGACUCGCCCCCGGGAGAUUUUUUCCUCGAGCAA [G19U U20C G59A], the nonsense suppression was at most 0.026.

Turning to CUCUCGGUAGCCAAGUUGGUUUAAGGCGCAAGACUUUAAUUUAUCACUACGAAAUCUUGACAUCGGGCGUUCGACUCGCCCCCGGGGGAUUUUUUCCUCGAGCAA [G61C A87G], the nonsense suppression came to 0.247.

As to CUCUCGGUAGCCAAUUUGGUUUAAGGCGCAACACUUUAAUUUAUCACUACGAAAUCUUGAGAUCGGGCGUUCGACUCGCCCCCGGGAGAUUUUUUCCUCGAGCAA [G15U G32C], the nonsense suppression was at most 0.026. The value for CUCUCGGGAGCCAAGUUGGUUUAAGGCGCAAGACUUUAAUUUAUCACUACGAAAUCUUGACAUCGGGCGUUCGACUCGCCACCCGGAGAUUUUUUCCUCGAGCAA [U8G G61C C81A G84C] was at most 0.026. As for CUCUCGGUAGCCAAGUUGGUUGAAGGCGCAAGACUUUAAUUUAUCACUACGAAAUCUUUAGAUCGGGCGUUCGGCUCGCCCCCGGGAGAUUUUUUCCUCGAGCAA [U22G G59U A74G], the nonsense suppression was at most 0.026.
